This is one part of the list. The full chains were built here from the parent and the listed change. Inactive controls read about 0.05.
B1: TEV protease; numbered along this chain (parent)
chain: MGESLFKGPRDYNPISSSICHLTNESDGHTTSLYGIGFGPFIITNKHLFRRNNGTLVVQSLHGVFKVKDTTTLQQHLVDGRDMIIIRMPKDFPPFPQKLKFREPQREERICLVTTNFQTKSMSSMVSDTSCTFPSGDGIFWKHWIQTKDGQCGSPLVSTRDGFIVGIHSASNFTNTNNYFTSVPKNFMELLTNQEAQQWVSGWRLNADSVLWGGHKVFMVKPEEPFQPVKEATQL

Variants of: B1
Experiment: raw area under fraction-flipped curve 0-4 h after induction (AUC4h, not background-subtracted), DNA-recorder readout of cleavage of the substrate (dimensionless); higher = more cleavage of the substrate by the protease variant
Settings: temperature: 34 °C; time window: 0-4 h after rhamnose induction
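Also: Bxb1 expression induced with 0.2% (w/v) L-rhamnose at OD600 near 0.5, cultures sampled hourly, flipped fraction per protease–substrate barcode pair counted by paired-end Illumina sequencing.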

Variant	area with substrate CNLYFQS	area with substrate DNLYFQS	area with substrate HNLYFQS	area with substrate KNLYFQS	area with substrate LNLYFQS	area with substrate PNLYFQS	area with substrate QNLYFQS	area with substrate SNLYFQS	area with substrate TNLYFQS	area with substrate WNLYFQS	area with substrate FNLYFQS	area with substrate GNLYFQS	area with substrate NNLYFQS	area with substrate MNLYFQS	area with substrate VNLYFQS	area with substrate YNLYFQS	area with substrate RNLYFQS	area with substrate INLYFQS
MGESLFKGPRDYNPISSSICHLTNESDGHTTSLYGIGFGPFIITNKHLFRRNNGTLVVQSLHGVFKVKDTTTLQQHLVDGRDMIIIRMPKDFPPFPQKLKFREMQREERICLVTTNFQTKSMSSMVSDTSCTFPSGDGIFWKHWIQTKDGQCGSPLVSTRDGFIVGIHSASNFTNTNNYFTSVPKNFMELLTNQEAQQWVSGWRLNADSVLWGGHKVFMVKPEEPFQPVKEATQL [P104M]	0.0494	0.0446	0.0548	0.0686	0.0162	0.0602	0.0548	0.0289	0.0555	0.0486								
MGESLFKGPRDYNPISSSICHLTNESDGHTTSLYGIGFGPFIITNKHLFRRNNGTLVVQSLHGVFKVKDTTTLQQHLVDGRDMIIIRMPKDFPPFPQKLKFREPQREERICQVTTNFQTKSMSSMVSDTSCTFPSGDGIFWKHWIQTKDGQCGSPLVSTRDGFIVGIHSASNFTNTNNYFTSVPKNFMELLTNQEAQQWVSGWRLNADSVLWGGHKVFMVKPEEPFQPVKEATQL [L112Q]	0.0556		0.0582	0.075	0.0655			0.0598	0.0632	0.0528	0.0675	0.0548	0.0642					
MGESLFKGPRDYNPISSSICHLTNESDGHTTSLYGIGFGPFIITNKHLFRRNNGTLVVQSLHGVFKVKDTTTLQQHLVDGRDMIIIRMPKDFPPFPQKLKFREPQREERICLVTTNFQTFSMSSMVSDTSCTFPSGDGIFWKHWIQTKDGQCGSPLVSTRDGFIVGIHSASNFTNTNNYFTSVPKNFMELLTNQEAQQWVSGWRLNADSVLWGGHKVFMVKPEEPFQPVKEATQL [K120F]	0.0681		0.0624	0.0629	0.0642	0.0583			0.0662	0.0563	0.0617		0.0709	0.0509	0.0655	0.067		
MGESLFKGPRDYNPISSSICHLTNESDGHTTSLYGIGFGPFIITNKHLFRRNNGTLVVQSLHGVFKVKDTTTLQQHLVDGRDMIIIRMPKDFPPFPQKLKFREPQREERICLVTTNFQTPSMSSMVSDTSCTFPSGDGIFWKHWIQTKDGQCGSPLVSTRDGFIVGIHSASNFTNTNNYFTSVPKNFMELLTNQEAQQWVSGWRLNADSVLWGGHKVFMVKPEEPFQPVKEATQL [K120P]	0.0403					0.0673		0.0535		0.0522		0.0605		0.105		0.0399	0.073	
MGESLFKGPRDYNPISSSICHLTNESDGHTTSLYGIGFGPFIITNKHLFRRNNGTLVVQSLHGVFKVKDTTTLQQHLVDGRDMIIIRMPKDFPPFPQKLKFREPQREERICLVTTNFQTWSMSSMVSDTSCTFPSGDGIFWKHWIQTKDGQCGSPLVSTRDGFIVGIHSASNFTNTNNYFTSVPKNFMELLTNQEAQQWVSGWRLNADSVLWGGHKVFMVKPEEPFQPVKEATQL [K120W]	0.0797	0.0643	0.0685	0.0682		0.0656			0.031	0.0587						0.0571		
MGESLFKGPRDYNPISSSICHLTNESDGHTTSLYGIGFGPFIITNKHLFRRNNGTLVVQSLHGVFKVKDTTTLQQHLVDGRDMIIIRMPKDFPPFPQKLKFREPQREERICLVTTNFQTKSMSSMVSITSCTFPSGDGIFWKHWIQTKDGQCGSPLVSTRDGFIVGIHSASNFTNTNNYFTSVPKNFMELLTNQEAQQWVSGWRLNADSVLWGGHKVFMVKPEEPFQPVKEATQL [D128I]	0.0674		0.112	0.0719				0.0743	0.0513	0.049				0.0733		0.0618		0.0799
MGESLFKGPRDYNPISSSICHLTNESDGHTTSLYGIGFGPFIITNKHLFRRNNGTLVVQSLHGVFKVKDTTTLQQHLVDGRDMIIIRMPKDFPPFPQKLKFREPQREERICLVTTNFQTKSMSSMVSLTSCTFPSGDGIFWKHWIQTKDGQCGSPLVSTRDGFIVGIHSASNFTNTNNYFTSVPKNFMELLTNQEAQQWVSGWRLNADSVLWGGHKVFMVKPEEPFQPVKEATQL [D128L]	0.0835	0.105	0.0745	0.0542	0.0586	0.0876			0.0824	0.0717	0.0745	0.0889				0.0463	0.0627	0.0913
MGESLFKGPRDYNPISSSICHLTNESDGHTTSLYGIGFGPFIITNKHLFRRNNGTLVVQSLHGVFKVKDTTTLQQHLVDGRDMIIIRMPKDFPPFPQKLKFREPQREERICLVTTNFQTKSMSSMVSNTSCTFPSGDGIFWKHWIQTKDGQCGSPLVSTRDGFIVGIHSASNFTNTNNYFTSVPKNFMELLTNQEAQQWVSGWRLNADSVLWGGHKVFMVKPEEPFQPVKEATQL [D128N]	0.0836	0.086	0.0783	0.08	0.0694	0.0704		0.0859		0.0654	0.0457		0.104	0.0638		0.0605		
MGESLFKGPRDYNPISSSICHLTNESDGHTTSLYGIGFGPFIITNKHLFRRNNGTLVVQSLHGVFKVKDTTTLQQHLVDGRDMIIIRMPKDFPPFPQKLKFREPQREERICLVTTNFQTKSMSSMVSWTSCTFPSGDGIFWKHWIQTKDGQCGSPLVSTRDGFIVGIHSASNFTNTNNYFTSVPKNFMELLTNQEAQQWVSGWRLNADSVLWGGHKVFMVKPEEPFQPVKEATQL [D128W]	0.145		0.111			0.115		0.134								0.121		0.0934
MGESLFKGPRDYNPISSSICHLTNESDGHTTSLYGIGFGPFIITNKHLFRRNNGTLVVQSLHGVFKVKDTTTLQQHLVDGRDMIIIRMPKDFPPFPQKLKFREPQREERICLVTTNFQTKSMSSMVSYTSCTFPSGDGIFWKHWIQTKDGQCGSPLVSTRDGFIVGIHSASNFTNTNNYFTSVPKNFMELLTNQEAQQWVSGWRLNADSVLWGGHKVFMVKPEEPFQPVKEATQL [D128Y]	0.0784			0.0799	0.0911	0.0733			0.055	0.0611		0.0853				0.0715		
MGESLFKGPRDYNPISSSICHLTNESDGHTTSLYGIGFGPFIITNKHLFRRNNGTLVVQSLHGVFKVKDTTTLQQHLVDGRDMIIIRMPKDFPPFPQKLKFREPQREERICLVTTNFQTKSMSSMVSDTSCTFPSHDGIFWKHWIQTKDGQCGSPLVSTRDGFIVGIHSASNFTNTNNYFTSVPKNFMELLTNQEAQQWVSGWRLNADSVLWGGHKVFMVKPEEPFQPVKEATQL [G136H]	0.0722		0.0638	0.0726		0.0501	0.062	0.0749	0.0606	0.0601		0.0536	0.0742	0.039		0.0618		0.0511
MGESLFKGPRDYNPISSSICHLTNESDGHTTSLYGIGFGPFIITNKHLFRRNNGTLVVQSLHGVFKVKDTTTLQQHLVDGRDMIIIRMPKDFPPFPQKLKFREPQREERICLVTTNFQTKSMSSMVSDTSCTFPSLDGIFWKHWIQTKDGQCGSPLVSTRDGFIVGIHSASNFTNTNNYFTSVPKNFMELLTNQEAQQWVSGWRLNADSVLWGGHKVFMVKPEEPFQPVKEATQL [G136L]	0.0712		0.0638	0.0744		0.0714	0.0752		0.0489	0.0549	0.0918	0.0773	0.0529	0.0916				
MGESLFKGPRDYNPISSSICHLTNESDGHTTSLYGIGFGPFIITNKHLFRRNNGTLVVQSLHGVFKVKDTTTLQQHLVDGRDMIIIRMPKDFPPFPQKLKFREPQREERICLVTTNFQTKSMSSMVSDTSCTFPSNDGIFWKHWIQTKDGQCGSPLVSTRDGFIVGIHSASNFTNTNNYFTSVPKNFMELLTNQEAQQWVSGWRLNADSVLWGGHKVFMVKPEEPFQPVKEATQL [G136N]	0.0831	0.0923	0.0931	0.0556	0.0601	0.0708		0.0545	0.0713	0.0485			0.0771			0.0775		
MGESLFKGPRDYNPISSSICHLTNESDGHTTSLYGIGFGPFIITNKHLFRRNNGTLVVQSLHGVFKVKDTTTLQQHLVDGRDMIIIRMPKDFPPFPQKLKFREPQREERICLVTTNFQTKSMSSMVSDTSCTFPSQDGIFWKHWIQTKDGQCGSPLVSTRDGFIVGIHSASNFTNTNNYFTSVPKNFMELLTNQEAQQWVSGWRLNADSVLWGGHKVFMVKPEEPFQPVKEATQL [G136Q]	0.0623		0.0652	0.0642	0.0775	0.0733			0.0656	0.0559		0.035	0.0481	0.0723	0.0605	0.0729	0.076	0.059
MGESLFKGPRDYNPISSSICHLTNESDGHTTSLYGIGFGPFIITNKHLFRRNNGTLVVQSLHGVFKVKDTTTLQQHLVDGRDMIIIRMPKDFPPFPQKLKFREPQREERICLVTTNFQTKSMSSMVSDTSCTFPSRDGIFWKHWIQTKDGQCGSPLVSTRDGFIVGIHSASNFTNTNNYFTSVPKNFMELLTNQEAQQWVSGWRLNADSVLWGGHKVFMVKPEEPFQPVKEATQL [G136R]	0.068	0.0658	0.0655		0.0685	0.0622				0.0689		0.0827	0.0722	0.0569	0.0666	0.051	0.0581	0.0691
MGESLFKGPRDYNPISSSICHLTNESDGHTTSLYGIGFGPFIITNKHLFRRNNGTLVVQSLHGVFKVKDTTTLQQHLVDGRDMIIIRMPKDFPPFPQKLKFREPQREERICLVTTNFQTKSMSSMVSDTSCTFPSTDGIFWKHWIQTKDGQCGSPLVSTRDGFIVGIHSASNFTNTNNYFTSVPKNFMELLTNQEAQQWVSGWRLNADSVLWGGHKVFMVKPEEPFQPVKEATQL [G136T]	0.0633	0.0658	0.0541	0.0651	0.0634	0.0654		0.0651	0.0616	0.0602	0.0568	0.0622	0.0586	0.0608		0.0584	0.0518	0.0635
MGESLFKGPRDYNPISSSICHLTNESDGHTTSLYGIGFGPFIITNKHLFRRNNGTLVVQSLHGVFKVKDTTTLQQHLVDGRDMIIIRMPKDFPPFPQKLKFREPQREERICLVTTNFQTKSMSSMVSDTSCTFPSGDGIFWKHHIQTKDGQCGSPLVSTRDGFIVGIHSASNFTNTNNYFTSVPKNFMELLTNQEAQQWVSGWRLNADSVLWGGHKVFMVKPEEPFQPVKEATQL [W144H]	0.0698	0.0801	0.0637		0.0669	0.0301	0.0578	0.0609	0.0503	0.0639	0.0561							
MGESLFKGPRDYNPISSSICHLTNESDGHTTSLYGIGFGPFIITNKHLFRRNNGTLVVQSLHGVFKVKDTTTLQQHLVDGRDMIIIRMPKDFPPFPQKLKFREPQREERICLVTTNFQTKSMSSMVSDTSCTFPSGDGIFWKHKIQTKDGQCGSPLVSTRDGFIVGIHSASNFTNTNNYFTSVPKNFMELLTNQEAQQWVSGWRLNADSVLWGGHKVFMVKPEEPFQPVKEATQL [W144K]	0.0871		0.0753				0.0598	0.0612	0.0662	0.0551				0.0577		0.0583	0.0837	
MGESLFKGPRDYNPISSSICHLTNESDGHTTSLYGIGFGPFIITNKHLFRRNNGTLVVQSLHGVFKVKDTTTLQQHLVDGRDMIIIRMPKDFPPFPQKLKFREPQREERICLVTTNFQTKSMSSMVSDTSCTFPSGDGIFWKHNIQTKDGQCGSPLVSTRDGFIVGIHSASNFTNTNNYFTSVPKNFMELLTNQEAQQWVSGWRLNADSVLWGGHKVFMVKPEEPFQPVKEATQL [W144N]	0.0605	0.0692	0.0569			0.0427		0.0666	0.0879	0.0636	0.0625	0.0794		0.07		0.0654		0.0527

From the supplement of paper PMC12217912
